The supplement of paper PMC6089552
Hit rate of the full screen: of about 3,200 compounds, about 300 (9.4%) showed activity. Only a part is listed here, and it is no random draw.

Tested on: A673/TR/shEF
Assay: cell viability (LOESS-normalised, relative to median of negative controls) (log2 ratio); higher = more viable cells (less compound effect), active = hit call of the paper (over 3 MAD below the median)
Conditions: treatment time: 72 h
How it was run: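 A673/TR/shEF Ewing sarcoma cells were plated at 1,500 per well in 384-well plates and cultured with or without doxycycline, added 24 h before compounds, to induce EWS-FLI1 shRNA knockdown. Library compounds at two or more concentrations, alongside DMSO controls, were applied for three days. Cell viability was measured by CellTiter-Glo luminescence on an Envision reader. Readings were LOESS-corrected per plate, divided by the median of negative controls and log2-transformed, and hits were wells lying at least three median absolute deviations from the median of all screened wells.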

[1] = 0.25 µM, library screen: screen1, EWS-FLI1 expression: high (no doxycycline)
[2] = 0.25 µM, library screen: screen1, EWS-FLI1 expression: low (doxycycline-induced shRNA knockdown)
[3] = 2.5 µM, library screen: screen1, EWS-FLI1 expression: high (no doxycycline)
[4] = 2.5 µM, library screen: screen1, EWS-FLI1 expression: low (doxycycline-induced shRNA knockdown)
[5] = 0.25 µM, library screen: screen2, EWS-FLI1 expression: high (no doxycycline)
[6] = 0.25 µM, library screen: screen2, EWS-FLI1 expression: low (doxycycline-induced shRNA knockdown)
[7] = 2.5 µM, library screen: screen2, EWS-FLI1 expression: high (no doxycycline)
[8] = 2.5 µM, library screen: screen2, EWS-FLI1 expression: low (doxycycline-induced shRNA knockdown)
[9] = 8.3 µM, library screen: screen3, EWS-FLI1 expression: high (no doxycycline)
[10] = 8.3 µM, library screen: screen3, EWS-FLI1 expression: low (doxycycline-induced shRNA knockdown)
[11] = 25 µM, library screen: screen3, EWS-FLI1 expression: high (no doxycycline)
[12] = 25 µM, library screen: screen3, EWS-FLI1 expression: low (doxycycline-induced shRNA knockdown)
[13] = 0.103 µM, library screen: screen3, EWS-FLI1 expression: high (no doxycycline)
[14] = 0.103 µM, library screen: screen3, EWS-FLI1 expression: low (doxycycline-induced shRNA knockdown)
[15] = 0.308 µM, library screen: screen3, EWS-FLI1 expression: high (no doxycycline)
[16] = 0.308 µM, library screen: screen3, EWS-FLI1 expression: low (doxycycline-induced shRNA knockdown)
[17] = 0.926 µM, library screen: screen3, EWS-FLI1 expression: high (no doxycycline)
[18] = 0.926 µM, library screen: screen3, EWS-FLI1 expression: low (doxycycline-induced shRNA knockdown)
[19] = 2.8 µM, library screen: screen3, EWS-FLI1 expression: high (no doxycycline)
[20] = 2.8 µM, library screen: screen3, EWS-FLI1 expression: low (doxycycline-induced shRNA knockdown)

Measured: cell viability (log2)

O=C(O)Cc1cc(I)c(Oc2cc(I)c(O)c(I)c2)c(I)c1
inactive: [1] 0.0518 | [2] 0.0863 | [3] 0.0776 | [4] -0.0191

CCN(CC)CCOc1ccc2c(c1)C(=O)c1cc(OCCN(CC)CC)ccc1-2
inactive: [1] 0.195 | [2] 0.139 | [3] 0.212 | [4] 0.101

Oc1ccc(Cn2cc[nH]c2=S)cc1
inactive: [5] 0.193 | [6] 0.126 | [7] 0.258 | [8] 0.0645

O=C(CCCCCCC(=O)Nc1ccccc1)NO
active: [9] -1.12 | [10] -0.391 | [11] -2.67 | [12] -1.56

Cc1cc(C)c(NC(=O)C[C@H](CC(=O)O)c2cccc3ccccc23)c(C(=O)N2CCC3(CCCC3)CC2)c1
inactive: [5] 0.0801 | [6] 0.123 | [7] 0.177 | [8] 0.14

COC(=O)CC1C(C)(C)C(OC(C)=O)[C@@H]2[C@@H](OC(C)=O)[C@]34O[C@@]2(O)[C@]1(C)C3CC[C@]1(C)C4=CC(=O)O[C@H]1c1ccoc1 (stereo partly drawn)
inactive: [1] 0.0398 | [2] 0.0526 | [3] 0.056 | [4] 0.0405

CCNC(=O)CCC/C=C\C[C@@H]1[C@@H](/C=C/[C@@H](O)CCc2ccccc2)[C@H](O)C[C@@H]1O
inactive: [13] -0.00225 | [14] -0.0145 | [15] 0.059 | [16] 0.0209 | [17] 0.0151 | [18] 0.0659 | [19] 0.0571 | [20] 0.0311 | [9] 0.0442 | [10] 0.0426 | [11] 0.0585 | [12] 0.0859

CN1C(=O)CCC1c1cccnc1 (stereo not drawn)
inactive: [5] 0.264 | [6] 0.181 | [7] 0.161 | [8] 0.0586

C[C@]12C[C@H](O)[C@H]3[C@@H](CCC4=CC(=O)CC[C@@]43C)[C@@H]1CC[C@@H]2C(=O)CO
inactive: [5] 0.159 | [6] 0.128 | [7] 0.172 | [8] 0.0224

Cc1ccc(NC(=O)c2cccc(N(C)C)c2)cc1NC(=O)c1ccc(O)cc1
0.277: [1]
active: [3] -0.147 | 25 µM, library screen: screen1, EWS-FLI1 expression: high (no doxycycline) -0.322
inactive: 0.025 µM, library screen: screen1, EWS-FLI1 expression: high (no doxycycline) 0.191 | 0.025 µM, library screen: screen1, EWS-FLI1 expression: low (doxycycline-induced shRNA knockdown) -0.0357 | [2] 0.139 | [4] 0.168 | 25 µM, library screen: screen1, EWS-FLI1 expression: low (doxycycline-induced shRNA knockdown) 0.196

Nc1c2c(nc3ccccc13)CCCC2
inactive: [1] 0.0619 | [2] -0.0315 | [5] 0.123 | [6] 0.153 | [3] 0.0644 | [4] -0.00851 | [7] 0.0137 | [8] 0.0585

C[C@@H]1O[C@H](OC[C@H]2O[C@@H](Oc3c(-c4ccc(O)c(O)c4)oc4cc(O)cc(O)c4c3=O)[C@H](O)[C@@H](O)[C@@H]2O)[C@H](O)[C@H](O)[C@H]1O
inactive: [1] -0.0111 | [2] 0.0513 | [3] 0.125 | [4] 0.094

O=c1cc(-c2ccccc2)oc2cc(O)cc(O)c12
inactive: [1] 0.121 | [2] 0.009 | [3] 0.165 | [4] 0.16

COC(=O)c1ccccc1
inactive: [1] 0.0726 | [2] 0.05 | [3] 0.155 | [4] 0.0447

CCN(CC)C(=S)SSC(=S)N(CC)CC
active: [1] -1.42 | [2] -0.538 | [17] -4.24 | [18] -2.11 | [3] -2.82 | [4] -1.78 | [7] -4.17 | [8] -0.213 | [19] -4.24 | [20] -4.26 | [9] -4.26 | [10] -4.27 | [11] -4.26 | [12] -4.25
inactive: [13] 0.0335 | [14] 0.117 | [5] 0.112 | [6] 0.121 | [15] -0.158 | [16] 0.0728

C=C[C@@]1(C)CC(=O)[C@]2(O)[C@@]3(C)[C@@H](O)CCC(C)(C)[C@@H]3[C@H](O)[C@H](OC(C)=O)[C@@]2(C)O1
inactive: [5] 0.179 | [6] 0.0395 | [7] 0.202 | [8] -0.0301

C/C(=C(\CCOP(=O)(O)O)SC(=O)c1ccccc1)N(C=O)Cc1cnc(C)nc1N
inactive: [1] 0.115 | [2] 0.132 | [3] 0.107 | [4] 0.0772

CCCC(=O)NCCc1c2n(c3ccc(OC)cc13)Cc1ccccc1-2
inactive: [5] 0.13 | [6] 0.122 | [7] 0.156 | [8] 0.045

CCC(C(N)=O)c1ccccc1 (stereo not drawn)
inactive: [1] 0.0612 | [2] -0.0114 | [3] 0.141 | [4] -0.108

CC1(O)/C=C\C=C(\CO)C2CC(C)(C)C2(O)CC1 (stereo not drawn)
inactive: [1] 0.0666 | [2] 0.000836 | [3] 0.128 | [4] 0.00974

CCOc1cc(CC(=O)N[C@@H](CC(C)C)c2ccccc2N2CCCCC2)ccc1C(=O)O
inactive: [13] -0.000142 | [14] 0.0449 | [15] 0.00176 | [16] 0.0482 | [17] 0.0509 | [18] 0.0503 | [19] 0.0796 | [20] 0.0426 | [9] 0.137 | [10] 0.0933 | [11] 0.103 | [12] 0.0918

COc1cc2c(cc1OC)C1(O)C(=O)c3ccc(O)c(C(=O)O)c3OC1CO2 (stereo not drawn)
inactive: [1] -0.00498 | [2] 0.0907 | [3] 0.0685 | [4] 0.156

C#C[C@]1(O)CC[C@H]2[C@@H]3CCc4cc(O)ccc4[C@H]3CC[C@@]21C
inactive: [13] 0.118 | [14] -0.0292 | [1] 0.073 | [2] -0.00134 | [15] 0.163 | [16] 0.106 | [17] 0.103 | [18] 0.0863 | [3] 0.167 | [4] 0.0942 | [19] 0.118 | [20] 0.0746 | [9] 0.0672 | [10] 0.0743 | [11] 0.0815 | [12] 0.112

NC(CCCP(=O)(O)O)C(=O)O (stereo not drawn)
inactive: [5] 0.186 | [6] 0.0104 | [7] 0.135 | [8] 0.138

C[N+](C)(CCCCCC[N+](C)(C)CCCN1C(=O)c2cccc3cccc(c23)C1=O)CCCN1C(=O)c2cccc3cccc(c23)C1=O
inactive: [5] 0.21 | [6] 0.0792 | [7] 0.139 | [8] 0.0785

CC(C)=CC1C(CO)C1(C)C (stereo not drawn)
inactive: [1] 0.105 | [2] 0.00359 | [3] 0.117 | [4] 0.123

Cc1occc(=O)c1O
inactive: [1] 0.0659 | [2] 0.0622 | [3] 0.0741 | [4] 0.0222

NCCSSCCN
inactive: [1] 0.191 | [2] 0.0743 | [5] 0.16 | [6] 0.0654 | [3] 0.122 | [4] 0.081 | [7] 0.0665 | [8] 0.0319

CC(C)NCC(O)c1ccc(O)c(O)c1 (stereo not drawn)
inactive: [13] 0.0337 | [14] 0.0393 | [1] 0.165 | [2] 0.0305 | [5] 0.153 | [6] 0.0891 | [15] 0.0675 | [16] 0.099 | [17] 0.0632 | [18] 0.115 | [3] 0.207 | [4] 0.113 | [7] 0.117 | [8] 0.0246 | [19] 0.0893 | [20] 0.006 | [9] 0.0355 | [10] 0.0704 | [11] -0.0428 | [12] -0.0137

COc1c(N2C[C@@H]3CCCN[C@@H]3C2)c(F)cc2c(=O)c(C(=O)O)cn(C3CC3)c12
inactive: [13] 0.00217 | [14] 0.0476 | [1] 0.076 | [2] 0.0797 | [15] 0.0186 | [16] 0.0131 | [17] 0.0161 | [18] 0.0509 | [3] 0.147 | [4] 0.0675 | [19] 0.0634 | [20] 0.0526 | [9] -0.0149 | [10] 0.05 | [11] 0.0823 | [12] 0.0467

COc1ccc(C(=O)c2ccccc2)c(O)c1
inactive: [1] 0.0945 | [2] 0.105 | [3] 0.159 | [4] 0.225

COc1ccc(C(=O)CC(=O)c2ccc(C(C)(C)C)cc2)cc1
inactive: [1] 0.117 | [2] 0.0122 | [3] 0.133 | [4] -0.0201

Cc1ccc(C(C)C)c(O)c1C(=O)O
inactive: [1] 0.112 | [2] 0.00973 | [3] 0.164 | [4] 0.0715

CCCC1O[C@@H]2C[C@H]3[C@@H]4CCC5=CC(=O)C=C[C@]5(C)[C@H]4[C@@H](O)C[C@]3(C)[C@]2(C(=O)CO)O1 (stereo partly drawn)
inactive: [13] 0.0449 | [14] 0.0616 | [1] 0.142 | [2] 0.024 | [5] 0.237 | [6] 0.0675 | [15] 0.111 | [16] 0.07 | [17] 0.126 | [18] 0.0826 | [3] 0.133 | [4] 0.112 | [7] 0.164 | [8] 0.106 | [19] 0.0485 | [20] 0.156 | [9] 0.0523 | [10] 0.0811 | [11] 0.0554 | [12] 0.107

COc1cc(C(C)=O)ccc1OCCCN1CCC(c2noc3cc(F)ccc23)CC1
inactive: [13] 0.0657 | [14] 0.0535 | [15] 0.0227 | [16] 0.0553 | [17] 0.0575 | [18] 0.0415 | [19] 0.0423 | [20] 0.0146 | [9] -0.00637 | [10] 0.0589 | [11] 0.0452 | [12] 0.0492
